Source: the supplement of paper PMC11417369
± gives the standard deviation of the averaged measurements. Some of the results follow.

Test system: PfAP2-I AP2 domain 3 (GST-tagged)
Test: gcPBM binding intensity (ln(normalized median fluorescence intensity)); higher = stronger DNA binding
In short: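 DNA-binding domains from P. falciparum, fused to GST and produced in E. coli, were put on an Agilent 4 × 180k double-stranded probe array for 1 h in 1× PBS holding 1% milk, 0.2 mg/ml BSA, 0.5% salmon testes DNA and 0.03% Triton X-100. Probes were primer-extended, 36 bp long and drawn from intergenic genomic regions, with negative controls included. After Alexa488 anti-GST antibody detection and a 488 nm scan, binding intensity was set as the highest Masliner-normalised natural-log median intensity across replicate spots of either probe orientation.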

Sequence	gcPBM binding intensity (ln)
ACAAAAATTAAATAAAGTACATTTTTAAAATACGTA [XGTACX_site3880]	7.66 ± 0.43
AAAAGCACAAAAAATACACACACAAAAAATAAAAAA [CACACA_site8545]	7.8 ± 0.66
TTAACAAATAAACACACACACACACCCAAAAAAAAA [CACACA_site8068]	8.43 ± 0.22
ATAAAAAAAAAAACAGTAAAATTATAATTATAATTA [TGCATGCA_negctrl_site356]	7.61 ± 0.81
ATTATTTGAAACTATTGTACATTTAAAAACATTTTT [XGTACX_site4896]	7.76 ± 0.42
TGGAACCTTTAAAATACACACCCAAATCCTTTGAAA [CACACA_site7671]	7.57 ± 0.41
AAAAAAAAAAAAAACACACACATATAAATATAAATA [CACACA_site6972]	8.15 ± 0.45
ATTGGACTATAAATAGGTACACATATATATATATAT [XGTACX_site7562]	9.38 ± 0.52
TCATATATTCAAAAATTTAAAGTTAATAAAACTTGA [CACACA_negctrl_site1546]	7.11 ± 0.6
CATATATATTTTATTTGTACGTATAAAAAAACAAAA [XGTACX_site4253]	8.03 ± 0.17
ATATGAAAAAGAACTTGTACTAAAGTGGCATATTAT [XGTACX_site8520]	8.57 ± 0.38
TAAATACTTGTATATAGTACAAGTTGTTTTTTTTAA [XGTACX_site5643]	7.21 ± 0.33
TTTTCATTTGTGACAGTGCAAAATGTTATATTAAAA [GTGCAC_site9647]	9.99 ± 0.3
TATAAAATGATGATATGTACTTATGTAGTTTTTTTA [XGTACX_site8711]	7.46 ± 0.28
AATATATGGTTTCATGATATTAAATTCAAAATAATG [CACACA_negctrl_site318]	7.49 ± 0.43
AATAATACATCCTTAGTGCAGAAATAAAAATTAAGC [GTGCAC_site9955]	9.76 ± 0.24
TATTTATTGTGACACTTATATTATTTTATGATTAAA [CACACA_negctrl_site525]	7.96 ± 0.45
TTTGTAATAAATAAGAGTACAAGTATGGTTCCACTA [XGTACX_site2579]	7.97 ± 0.42
TGTATACATTCTGAATGTACGGAACACCTCATAACT [XGTACX_site7240]	7.71 ± 0.66
TATATATAAAAACACACACACACACCCTATAATTAT [CACACA_site4063]	8.27 ± 0.15
TTTCAAATTTAATACACACACAAGTATATATTTATC [CACACA_site3947]	7.78 ± 0.4
TTGTGTTATCACACGAAGGGGATAAGACATAAATGT [TGCATGCA_negctrl_site368]	7.87 ± 0.91

Sequence	gcPBM binding intensity (ln)
TTTTTGTTTGAACACTGTACGTATAAATATAAAAGT [XGTACX_site6476]	8.49 ± 0.2
AATGTGTTTTTTTTTTTTTTTTTTTTCAATCTCTAT [CACACA_negctrl_site794]	7.46 ± 0.51
GAAAAAAGAAAAAAAAGTACACACATGTATATTAAT [XGTACX_site5265]	7.71 ± 0.74
AATGTACACCCACCCACACACAAACAAATATATATA [CACACA_site5521]	8.62 ± 0.79
TTATATTATGTTCAATCAAAAATTATTTTTAAAAAA [XGTACX_negctrl_site595]	7.67 ± 0.53
TATGTTCCATTTTTTGGTACACATACAATAACTGCT [XGTACX_site2256]	7.62 ± 0.47
ATTACATACGAGCACACGTAAAAGTATAATATAAAA [GTGCAC_negctrl_site446]	7.92 ± 0.53
TTTGTATTGTGCAGATGTACATTATAATATTGGATT [XGTACX_site5033]	8.34 ± 0.41
TTATATATAATATATACACACACATGTATATATAAA [CACACA_site8603]	7.83 ± 0.48
AACAAATACAAAGAATAGTCATCTGAATGGTGTTAT [GTGCAC_negctrl_site685]	7.57 ± 0.71
ATAAATAAAATAAAAGCACACAAAATGTAAATAATT [CACACA_site8895]	8.56 ± 0.54
AAAAAAAAAAAAAGTACACACATACCTATAAATATA [CACACA_site6937]	8.16 ± 0.16
TTTTTATTTTATTAGTGTACTTTATATTTAACAATA [XGTACX_site1175]	8.13 ± 0.12
TTTATTTTTATAAGAGCATGCACTGTTTAAAATGGT [TGCATGCA_site628]	8.35 ± 0.34
TTTATATACATTTTAAATTTTAATGTAACCCATGGG [TGCATGCA_negctrl_site115]	7.34 ± 0.42
TATATATTTATAAATGAACACACACCCAATTTGAAT [CACACA_site9113]	8.36 ± 0.16
TATTTCTGATTACATACACACATATACAGATATGAC [CACACA_site7490]	7.82 ± 0.6
TATATACCTATATACACACACATATATAAATAAATA [CACACA_site7341]	7.88 ± 0.3
ATAAAGATTAATTCAAGTACACATCAAATACTACAA [XGTACX_site8794]	7.88 ± 0.27
TATATATATTTATGTACACACATCAATCATATTAAC [CACACA_site5127]	8.18 ± 0.47
CATATACATATATGTAGTACGTGTTCTTCTATATGA [XGTACX_site8344]	7.91 ± 0.49
AAATTGAATTAGTTAACACACAACTTTTATTTCATA [CACACA_site2840]	7.62 ± 0.77
